Consider 97 variants from a collection of fitness landscapes (doi:10.1016/j.celrep.2020.107928).

Over roughly 81,000 sequences, “one-hybrid fitness for binding parS DNA” has its median near -0.17; the highest 2% begin near 0.51. The list shows a part of the results.

First the molecules themselves.
B1: Caulobacter ParB omega fusion; a variant is named by its letters at X, in order, B8GW30 (parent)
chain: MESVVVGEPGMSEGRRGLGRGLSALLGEVDAAPAQAPGEQLGGSREAPIEILQRNPDQPRRTFREEDLEDLSNSIREKGVLQPILVRPSPDTAGEYQIVAGERAWRAAQRAGLKTVPIMVRELDDLAVLEIGIIENVQRADLNVLEEALSYKVLMEKFERTQENIAQTIGKSXSHVANXMRLLXLPDEVQSYLVSGELTAXHARAIAAAADPVALAKQIIEGGLSVRETEALARKAPNLSAGKSKGGRPPRVKDTDTQALESDLSSVLGLDVSIDHRGSTGTLTITYATLEQLDDLCNRLTRGI

The variants in this test derive from B1. The experiment in a line: one-hybrid fitness for binding parS DNA (scaled: cognate 1, non-cognate 0); higher = stronger binding. As to conditions: with parS DNA site. The method, boiled down:
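Fitness here means the log change in variant-to-wild-type read ratio between plasmids sequenced before and after selection. That scale was set so cognate equals 1 and non-cognate equals 0. The selection was a bacterial one-hybrid screen of Caulobacter ParB libraries, four specificity codons randomised, in E. coli USO carrying a HIS3 reporter with the site 19 bp from the promoter, grown 48 hours at 37°C on M9-minus-histidine with 0.1 mM IPTG and 5 mM 3-AT.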
Turning to NLFG, the “one-hybrid fitness for binding parS DNA” value is at most 0.2.
As to QVRM, the “one-hybrid fitness for binding parS DNA” value is at most 0.2.
As for KSDT, the “one-hybrid fitness for binding parS DNA” value is at most 0.2.
For DSDL the value was at most 0.2; for RILW, 0.234.
For the variant QTTN, the “one-hybrid fitness for binding parS DNA” value was at most 0.2.
For QSKD the value was at most 0.2.
With LDND, the “one-hybrid fitness for binding parS DNA” value is at most 0.2.
Take SLTD: the “one-hybrid fitness for binding parS DNA” value was at most 0.2.
For VLDY the value was at most 0.2.
RAMD: the “one-hybrid fitness for binding parS DNA” value was at most 0.2.
For DQTG the value was at most 0.2; for HPQC, at most 0.2; for KASY, at most 0.2.
On to DYRR, for which the “one-hybrid fitness for binding parS DNA” value was at most 0.2.
Turning to HDAD, the “one-hybrid fitness for binding parS DNA” value was at most 0.2.
For PFSM the value was at most 0.2; for PHAC, at most 0.2.
On to KDGL, for which the “one-hybrid fitness for binding parS DNA” value is at most 0.2.
Regarding AFQT, the “one-hybrid fitness for binding parS DNA” value was at most 0.2.
For DCSQ, the “one-hybrid fitness for binding parS DNA” value is at most 0.2.
In the case of YYDT, the “one-hybrid fitness for binding parS DNA” value was at most 0.2.
For IFNG the value was at most 0.2; for QIEG, at most 0.2; for APGD, at most 0.2.
Turning to LSAG, the “one-hybrid fitness for binding parS DNA” value was at most 0.2.
As to SRHS, the “one-hybrid fitness for binding parS DNA” value was at most 0.2.
For the variant AGAT, the “one-hybrid fitness for binding parS DNA” value was at most 0.2.
For RWYC the value was 0.662; for HVRN, at most 0.2.
For HFTT the value was at most 0.2; for SQKP, at most 0.2; for RDDG, at most 0.2.
For QASW the value was at most 0.2; for GACA, at most 0.2.
For GAPE, the “one-hybrid fitness for binding parS DNA” value is at most 0.2.
On to MSRG, for which the “one-hybrid fitness for binding parS DNA” value was at most 0.2.
For DHMN the value was at most 0.2; for LSCT, at most 0.2; for SKGW, at most 0.2.
Consider THFC, for which the “one-hybrid fitness for binding parS DNA” value was at most 0.2.
Take SWKR: the “one-hybrid fitness for binding parS DNA” value was at most 0.2.
For QVEV the value was at most 0.2.
Take RCLR: the “one-hybrid fitness for binding parS DNA” value was at most 0.2.
For KSKR the value was at most 0.2; for SLYL, at most 0.2.
For WWQR the value was at most 0.2; for IEKT, at most 0.2.
On to LLMG, for which the “one-hybrid fitness for binding parS DNA” value was at most 0.2.
For MRRV the value was at most 0.2; for HWYG, at most 0.2.
For LGNI the value was at most 0.2; for GPYG, at most 0.2.
For GLNC, the “one-hybrid fitness for binding parS DNA” value was at most 0.2.
For LNPT the value was at most 0.2.
For RIPS the value was 0.812.
For SLNR the value was at most 0.2.
For RIWD, the “one-hybrid fitness for binding parS DNA” value was at most 0.2.
For NRMG the value was at most 0.2.
Regarding EWAG, the “one-hybrid fitness for binding parS DNA” value was at most 0.2.
Consider PCNR, for which the “one-hybrid fitness for binding parS DNA” value was at most 0.2.
ICMM: the “one-hybrid fitness for binding parS DNA” value is at most 0.2.
For ISHK the value was at most 0.2.
For PSVM the value was at most 0.2; for HWVR, at most 0.2.
For YWKS the value was at most 0.2.
On to RPYI, for which the “one-hybrid fitness for binding parS DNA” value was at most 0.2.
For IWNY the value was at most 0.2; for GAFN, at most 0.2.
For PCSL the value was at most 0.2; for PWAR, at most 0.2; for MNYS, at most 0.2.
For RTLC the value was 0.982; for RHKY, 0.518; for LSLR, at most 0.2.
In the case of NSTI, the “one-hybrid fitness for binding parS DNA” value was at most 0.2.
For NSIP the value was at most 0.2; for DMAS, at most 0.2; for ETEA, at most 0.2.
For AWDA the value was at most 0.2; for NRKV, at most 0.2; for TPHY, at most 0.2.
Consider NANK, for which the “one-hybrid fitness for binding parS DNA” value was at most 0.2.
In the case of ELLR, the “one-hybrid fitness for binding parS DNA” value is at most 0.2.
Consider MVPI, for which the “one-hybrid fitness for binding parS DNA” value is at most 0.2.
LASS: the “one-hybrid fitness for binding parS DNA” value was at most 0.2.
For PEWV the value was at most 0.2.
For CSPM the value was at most 0.2.
Consider VSGK, for which the “one-hybrid fitness for binding parS DNA” value was at most 0.2.
For STMW the value was at most 0.2.
For ELDF the value was at most 0.2; for IADS, at most 0.2; for RRIP, at most 0.2.
For the variant EANV, the “one-hybrid fitness for binding parS DNA” value is at most 0.2.
Regarding LLPA, the “one-hybrid fitness for binding parS DNA” value was at most 0.2.
For IVPG the value was at most 0.2.
For TIWR the value was at most 0.2.
